Measured values reported in ChEMBL document CHEMBL4888484, “Replenishing the malaria drug discovery pipeline: Screening and hit evaluation of the MMV Hit Generation Library 1 (HGL1) against asexual blood stage Plasmodium falciparum ,using a nano luciferase reporter read-out” (2022).
Among all 150,000 compounds or so, about 540 (0.36%) showed an effect of 50% or more. Some of the results follow.

test system: Plasmodium falciparum; assay: Primary screen in NF54 nanoGlo assay, in single point, at 2uM, 72h; a lower Z score goes with more inhibition; assay type: functional, Erythrocyte; details: timepoint 72 hour

| SMILES | % Inhibition | Z score |
| --- | --- | --- |
| CC(C)(CC#N)CS(=O)(=O)N1CCC(F)(c2ccc(Cl)cc2)CC1 | -7% | 1.04 |
| CC(=O)c1cccc(NC(=O)CN(c2ccc(C)cc2)S(=O)(=O)c2cccc3nonc23)c1 | 4% | -0.57 |
| CC[C@@](CNC(=O)C(=O)Nc1ccon1)(OC)c1ccccc1 | 19% | -2.46 |
| CN(C)Cc1nnc([C@H]2C[C@@H](NC(=O)C3CCOCC3)C2)n1C | -1% | 0.12 |
| O=C(Nc1nnc(-c2cc3ccccc3o2)o1)C(c1ccccc1)c1ccccc1 | -10% | 1.12 |
| CCn1cncc1CN1CCC[C@H](CNC(=O)c2ccc(C)nc2)C1 | -1% | 0.15 |
| O=C(Cc1c(Cl)cccc1Cl)N1CC[C@H](Oc2ccccn2)C1 | -6% | 1.18 |
| COc1cc(-c2nc(CN3CCS(=O)(=O)CC3)c(C)o2)cc2c1OCO2 | -2% | 0.4 |
| Cc1ccccc1[C@@H](O)C1CCN(CCc2cscn2)CC1 | -6% | 1.09 |
| Cc1sc2c(C)cccc2c1S(=O)(=O)N1CCOC[C@H]1C(N)=O | -8% | 0.99 |
| CNS(=O)(=O)c1cc(C(N)=O)ccc1OC | -9% | 1.25 |
| CCN(Cc1cc(C)no1)Cc1c(C)nn(C)c1C | -11% | 1.46 |
| CCC(CC)C(=O)Nc1c(C)cccc1O | -12% | 2.01 |
| Cc1noc2nc(C3CC3)cc(-c3nc([C@H]4CCOC4)no3)c12 | -18% | 1.85 |
| Cc1n[nH]c2cc(NC(=O)Cc3noc4ccccc34)ccc12 | -11% | 1.16 |
| CC(O)CC(C)(C)CNC(=O)NCC1CCCOC1C(C)(C)C (stereo unspecified) | -6% | 0.99 |
| O=C(Nc1cccc(Oc2ccccc2)n1)[C@@H]1C[C@H]2CC[C@@H]1O2 | -8% | 1.32 |
| O=C1OC[C@@H]2CCNCc3ccccc3N12 | -4% | 0.55 |
| O=C1CN(c2ccc(CNC(=O)NC(C3CC3)C3CC3)cc2)CCN1 | -9% | 1.13 |
| c1cncc(-c2nc(-c3cnccn3)n[nH]2)c1 | 5% | -0.87 |
| O=C(NC[C@H]1CCCO1)Nc1ccc(Cl)c2ncccc12 | 1% | -0.08 |
| CC(C)c1cc(N[C@H]2Cc3ccccc3[C@@H]2N)nc(N)n1 | 10% | -2.05 |

| SMILES | % Inhibition | Z score |
| --- | --- | --- |
| CCCOCC(=O)Nc1c(C)ccn2ncnc12 | 2% | -0.2 |
| CCc1nc(C(=O)N(C)C2CC2)nn1-c1c(Cl)cccc1Cl | -4% | 0.69 |
| Cc1nnc2ncc(-c3ccc4c(c3)OCCO4)cn12 | -7% | 1.42 |
| CN1CCC(CN(C)C(=O)C(C)(C)C2CC2)CC1 | 13% | -2.15 |
| O=C(CC1CC1)N1CCC(CCc2noc(-c3ccc(F)cc3)n2)CC1 | -10% | 1.67 |
| CCCC[C@H](NC(=O)c1c(C)cccc1OC)C(N)=O | -10% | 1.3 |
| CCc1nc(CNC(=O)N2CCC[C@H](OC)CC2)n[nH]1 | -4% | 0.62 |
| Cc1nc(C(C)C)sc1[C@H](C)N(C)Cc1nnc2n1CCCC2 | 3% | -0.34 |
| O=C(Nc1nnc(-c2cccs2)o1)c1ccccn1 | -4% | 0.48 |
| CCn1cccc(NC(=O)NC[C@H]2c3ccccc3C(=O)N2C)c1=O | -11% | 2.16 |
| CCN1CCN(C(=O)CC2(N3Cc4ccccc4C3=O)CCC(C(C)(C)C)CC2)CC1 (stereo unspecified) | -8% | 1.3 |
| NC(=O)[C@@H]1C[C@@H]2CCCN2[C@]12C(=O)Nc1ccc(F)cc12 | -7% | 0.91 |
| c1cc(NCc2cccc3cn[nH]c23)cc(OCCn2cccn2)c1 | -14% | 1.4 |
| CCc1ncc(CN(C)c2ccnc(N(C)C)n2)s1 | -7% | 0.9 |
| O=C(N1Cc2cccnc2C1)C1(c2ccccc2)CCOCC1 | 4% | -0.54 |
| CC(=O)N(C)CC(=O)N1CCOc2cc(F)c(Br)cc21 | -2% | 0.38 |
| COc1ccccc1CNC(=O)c1cc2c(N3CCCC3)nc(C)cn2n1 | -7% | 0.89 |
| COc1cc(C2Nc3cccc4cccc(c34)N2)ccc1OCC(=O)Nc1ccc(Cl)cc1 | -1% | 0.08 |
| Cc1ncoc1C(=O)N1CC[C@@]2(CCCN(CC3CCCCC3)C2)C1 | -1% | 0.16 |
| Cc1cc(COc2cc(Cl)ccc2F)ncn1 | -8% | 0.85 |
| CCn1cc(-c2ccc(Cl)cc2)cc1C(=O)N1CCN(c2ccccn2)CC1 | -9% | 1.59 |
